# Data reported in PubChem BioAssay AID652104 (National Center for Advancing Translational Sciences (NCATS), 2013).
# Among all 410,000 compounds or so, about 7,200 (1.8%) were called active. This list was built around the results that the source calls inconclusive (neither active nor inactive); the mix of calls is not that of the screen. Calls come from the whole dose curve; as a rule, active = well fitted activation curve with a large enough effect; inconclusive = small, poorly fitted or top-dose-only effect, or another doubt; inactive = no such curve, though single readings can be large or run the other way. No potency is given beside an inconclusive call; the fits are too rough.
# Test: qHTS of TDP-43 Inhibitors; note: nearly all actives have a fitted effect of over 50% in size; for growth rescue (activation): % of control where 0% means no effect
# Details: TDP-43 expressing yeast growth rescue, BacTiter-Glo, 24 h; growth rescue (activation): at 46.1 µM (top of the series) unless noted
# Outline: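 Yeast cells expressing TDP-43 under galactose induction are exposed to compounds for 24 hr at 30 deg C. BacTiter-Glo luminescence measures growth, so protective compounds score as activators.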
# Potency is the fitted concentration of half-maximal effect; tags give direction and shape of the fitted curve.
Structure (SMILES),Potency,growth rescue (activation)
O=C(NCc1cccs1)C1Cc2c(-c3ccc(Cl)cc3)ccnc2O1 (stereo not given),"inconclusive [activator, single point]",–
Cn1ccnc1SCC(=O)n1c2c(c3ccccc31)CCCC2,"inconclusive [activator, single point]",–
COc1ccc(NCC(O)COc2ccc(C(C)(C)C)cc2)cc1 (stereo not given),active: 15.8 µM,–
COc1ccccc1NCCC(=O)OCC(=O)NCc1ccco1,–,inactive: 3.11%
CC1(C)NC(=O)N(CCCCOc2ccc(Br)cc2Cl)C1=O,active: 12.6 µM,–
O=S(=O)(NC(=S)NC1CCCCC1)c1cccs1,"inconclusive [activator, single point]",–
Cc1cccc(OCC(=O)Nc2c(C)ccc3nsnc23)c1C,"inconclusive [activator, full curve, poor fit]",–
COc1ccc(-c2cc(C(=O)NCc3cc(OC)c(OC)c(OC)c3)[nH]n2)cc1,–,inactive: -13%
O=C(/C=C/[C@H]1O[C@@H](n2cnc3c(NC(=O)c4ccccc4)ncnc32)[C@H](O)[C@@H]1O)NCc1ccco1,"inconclusive [activator, partial curve]",–
O=C(COC(=O)Cc1ccccc1F)Nc1ccc(Cl)cn1,–,inactive: 1.91%
CC1(C(=O)Nc2ccccc2F)CCN1C(=O)Cc1cc(F)ccc1F (stereo not given),active: 7.08 µM,–
Cc1c(CC(=O)NCCc2ccccc2F)c(=O)oc2c(C)c3occ(C(C)(C)C)c3cc12,–,inactive: 6.91%
N#Cc1cnn2c(-c3cccc(C(F)(F)F)c3)ccnc12,"inconclusive [activator, full curve, poor fit]",–
COc1ccc(/C=N/NC(=S)SC)cc1OC,active: 35.5 µM,–
COC(=O)c1ccc(CNC(=O)C2CCC(=O)N(CCCc3ccccc3)C2)cc1 (stereo not given),"inconclusive [activator, single point]",–
CCOc1ccc(CCN2C(=S)N([C@@H](Cc3ccc(O)cc3)CN3CCCC3CN3C(=S)NC[C@@H]3Cc3ccc(O)cc3)C[C@@H]2CC(C)C)cc1 (stereo not given in full),"inconclusive [activator, single point]",–
Cc1cccc(-c2noc(CN(C(=O)COc3ccc(C(C)C)cc3)C(C)C)n2)c1,–,inactive: 11.1%
CCCCNC(=O)N(C)c1nc2ccccc2s1,"inconclusive [activator, partial curve]",–
CN1CCN(C(CNC(=O)C(=O)Nc2ccccc2)c2ccc3c(c2)OCO3)CC1 (stereo not given),–,inactive: 2.76%
Cc1nc(N2C(=O)c3oc4ccccc4c(=O)c3C2c2ccccc2F)sc1C (stereo not given),"inconclusive [activator, full curve, poor fit]",–
O=C(N/N=C/c1cccc(F)c1)NC1CCCCC1,active: 12.6 µM,–
COC(=O)c1sccc1S(=O)(=O)N1CCN(c2ccccc2)CC1,"inconclusive [activator, partial curve]",–
CC(=O)c1cc(O)c2ccccc2c1O,"inconclusive [activator, partial curve]",–
CCOc1ccc(CCNC(=O)CCc2c(C)nc3c4c(C)cc(C)nc4nn3c2C)cc1,–,inactive: -27.7%

Structure (SMILES),Potency,growth rescue (activation)
O=C(Nc1cnn(Cc2ccc(Cl)c(Cl)c2)c1)C12CC3CC(CC(C3)C1)C2,"inconclusive [activator, single point]",–
CC1CC(C)CN(C(=O)c2cc3cc(Br)cc(Br)c3o2)C1 (stereo not given),active: 31.6 µM,–
COc1ccc(/C=C/CN2CCC(C(=O)NC(c3ccc(F)cc3)c3ccc4ccccc4n3)CC2)cc1 (stereo not given),"inconclusive [activator, full curve, poor fit]",–
Cn1nc(C(=O)NC2CCC(O)CC2)c2ccccc2c1=O (stereo not given),"inconclusive [activator, full curve, poor fit]",–
CCOC(=O)c1scc(-c2ccccc2)c1S(=O)(=O)Nc1ccccc1F,"inconclusive [activator, partial curve]",–
COc1cc(NC(=O)c2ccc(-c3ccnn3C)c3ccoc23)cc(OC)c1OC,"inconclusive [activator, partial curve]",–
Clc1cccc(N2CCN(c3ncnc4c3nc3n4CCCCC3)CC2)c1,active: 17.8 µM,–
CC1CCN(C(=O)c2ccc3c(c2)NC(=O)/C(=C/c2ccccc2)S3)CC1,"inconclusive [activator, single point]",–
CCc1ccc(CNC(=O)c2sc3ncccc3c2-n2c(C)ccc2C)cc1,–,inactive: -72.4%
O=C(COC(=O)Cc1ccccc1)NCc1ccc2c(c1)OCO2,"inconclusive [activator, single point]",–
CC1CCCCN1C(=S)NCCc1ccccc1 (stereo not given),"inconclusive [activator, partial curve]",–
CCOC(=O)N1CCN(C(=O)/C=C/c2ccc(OC)cc2)CC1,"inconclusive [activator, single point]",–
CCc1ccc(OCC(=O)N2c3ccccc3CCc3ccccc32)cc1,"inconclusive [activator, partial curve, poor fit]",–
CCOC(=O)C1CCN(c2ncnc3c2c(-c2ccccc2)cn3-c2cccc(C)c2)CC1,–,inactive: 14.6%
Cc1oc2c(c(C)cc3oc(=O)c(CC(=O)NCCc4ccccc4F)c(C)c32)c1C,–,inactive: 5.92%
COCCNC(=O)/C(C#N)=C/c1cc(C)n(-c2ccc(C)cc2)c1C,"inconclusive [activator, single point]",–
Cn1cc(C(=O)Nc2ccc(Cl)c(Cl)c2)cn1,"inconclusive [activator, single point]",–
CCC(C(=O)OCC(=O)NCc1ccc2c(c1)OCO2)c1ccccc1 (stereo not given),"inconclusive [activator, single point]",–
O=C(Nc1cccs1)Nc1cc(C(F)(F)F)ccc1Cl,"inconclusive [activator, partial curve]",–
Cc1ccc(Cl)cc1N1CCN(C(=O)c2cnc(N3CCOCC3)c3ccccc23)CC1,active: 22.4 µM,–
CCc1ccc2cc(F)cc(F)c2n1,"inconclusive [activator, partial curve]",–
COc1ccc(NC(=O)CSc2nnc(C3CC3)n2C)cc1,"inconclusive [activator, single point]",–
CC1=CC(C)(C)Nc2ccc(OC(=O)CCN3C(=O)c4ccccc4C3=O)cc21,"inconclusive [activator, full curve, poor fit]",–
CCC1=Nc2cc(C(=O)NCC3CCCO3)ccc2Sc2ccc(Br)cc21 (stereo not given),"inconclusive [activator, single point]",–

Structure (SMILES),Potency,growth rescue (activation)
CCc1ccc(C2c3c(-c4ccccc4O)n[nH]c3C(=O)N2Cc2ccncc2)cc1 (stereo not given),–,inactive: 8.62%
COc1ccc(NC(=O)C2CC(c3c(F)cccc3Cl)=NO2)cc1 (stereo not given),active: 12.6 µM,–
CC(C)CCNC(=O)CCCN1C(=O)c2ccccc2Sc2ncccc21,–,inactive: 15.2%
O=C(CCn1c(=O)oc2ccccc21)N1CCN(c2ccccc2F)CC1,"inconclusive [activator, single point]",–
NNC(=O)c1ccc(COc2cccc3ccccc23)o1,"inconclusive [activator, full curve, poor fit]",–
Cc1ccc(Nc2c([N+](=O)[O-])c(=O)oc3ccccc23)cc1,"inconclusive [activator, partial curve]",–
Cc1ccc(OCC(=O)c2cc(C)n(C3CC3)c2C)c([N+](=O)[O-])n1,"inconclusive [activator, single point]",–
O=C(COc1ccccc1-c1ccccc1)N/N=C/c1cccnc1,"inconclusive [activator, single point]",–
CCN(C(=O)CSC1=Nc2ccccc2C2CC=NN12)C1CCS(=O)(=O)C1 (stereo not given),"inconclusive [activator, single point]",–
CCOC(=O)c1cc2cc(OC)ccc2[nH]1,"inconclusive [activator, single point]",–
Cc1noc(C)c1C(=O)Nc1nc(-c2cccs2)cs1,"inconclusive [activator, partial curve]",–
CC(=O)Oc1ccc2c(c1)CCC1C2CCC2(C)C(OC(C)=O)CCC12 (stereo not given),active: 31.6 µM,–
CCN(C(=O)c1cc2c(Cl)nc3ccccc3c2s1)c1cccc(Cl)c1,–,inactive: 7.52%
COc1ccc(CNS(=O)(=O)c2cc(C(=O)Nc3cc(Cl)cc(Cl)c3)ccc2F)cc1,active: 14.1 µM,–
O=C(Nc1c(-c2ccccc2)nc2sccn12)c1ccccc1,"inconclusive [activator, single point]",–
Cc1ccc(S(=O)(=O)N2CCN(C(=O)CSc3cc(C)ccc3C)CC2)c(C)c1,"inconclusive [activator, single point]",–
Cc1ccnc(NC(=O)c2ccccc2NC(=O)c2ccccc2)c1,"inconclusive [activator, single point]",–
CCOc1ccc(CNS(=O)(=O)c2cccs2)cc1OCC,–,inactive: 24.5%
CCc1noc(N)c1C(=O)Nc1ccc(Cl)cc1,"inconclusive [activator, single point]",–
COC(=O)c1ccc(CNC(=O)c2sccc2-c2ccccc2)cc1,"inconclusive [activator, partial curve]",–
CCOC(=O)C1CCCN(C(=O)C2CCN(c3nnc(C)c4c(C)n(-c5ccccc5)nc34)CC2)C1 (stereo not given),–,inactive: -13.7%
CCn1cc(C(=O)O)c(=O)c2cc(F)c(N3CCNCC3)nc21,"inconclusive [activator, partial curve, poor fit]",–
